Laboratory results published in PubChem BioAssay AID504832 (National Center for Advancing Translational Sciences (NCATS), 2011).
The campaign covered roughly 310,000 compounds. About 18,000 (5.8%) were called active. Inconclusive results, whose numbers are uncertain, are shown with a selection of clear calls. Calls come from the whole dose curve; as a rule, active = well fitted inhibition curve with a large enough effect; inconclusive = small, poorly fitted or top-dose-only effect, or another doubt; inactive = no such curve, though single readings can be large or run the other way. No potency is given beside an inconclusive call; the fits are too rough. Residues, ends and D or L forms follow the SMILES beside them. *: point of attachment. Cbz = O=C(OCc1ccccc1)*; OtBu = CC(C)(C)O*; tBu = CC(C)(C)*

Assay: Primary qHTS for delayed death inhibitors of the malarial parasite plastid, 48 hour incubation
Settings: P. falciparum luciferase growth in erythrocytes; series mostly up to 28.7 µM
How it was run: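 First compound was added to culture medium, then infected red cells at 0.1% parasitemia and 2% hematocrit (final). After incubation at 37 C under 5% CO2, luciferase detection reagent was dispensed and light output recorded.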
Potency is the fitted concentration of half-maximal effect; tags give direction and shape of the fitted curve.

SMILES | Potency
Cc1ccc(OCC(=O)c2c(N)n(C)c(=O)n(C)c2=O)c([N+](=O)[O-])n1 | inactive
Cc1c(CCN)ccc2c1[nH]c1ccccc12 | active: 10.4 µM
CCC1=NN(C(=O)c2cccc(Br)c2)C(O)(c2ccc(Br)cc2)C1 (stereo unspecified) | inconclusive [inhibitor, partial curve]
COc1ccc(C(=O)Nc2ccc(C(=O)N3CCC(C)CC3)cc2)cc1OC | inconclusive [inhibitor, single point]
Cc1ccc(C(=O)NNC2=Nc3cccc4cccc2c34)cc1 | inconclusive [inhibitor, single point]
CC1CCN(CCCNC(=O)CN2C(=O)CSc3ccc(S(=O)(=O)N4CCC(C)CC4)cc32)CC1 | inconclusive [inhibitor, partial curve, poor fit]
O=C(NC(=S)Nc1ccccc1N1CCCC1)c1ccccc1Br | inconclusive [inhibitor, single point]
O=C(C1Cc2ccccc2CN1C(=O)c1ccccc1)N1CCN(c2ccccc2)CC1 (stereo unspecified) | inconclusive [inhibitor, partial curve]
C/C(=N\NC(=S)NC1CCCCC1)c1ccccc1 | active: 4.15 µM
O=C1NC[C@H](c2ccccc2)N(CCC23CC4CC(CC(C4)C2)C3)C1=O | inconclusive [inhibitor, single point]
CC(=O)Nc1ccc(-c2nnn(CC(=O)c3ccccc3)n2)cc1Cl | inconclusive [inhibitor, single point]
Cc1ccc(CNc2nc3ccccc3n3nnnc23)cc1 | inactive
O=C1CCC/C1=C\c1ccccc1 | inactive
NS(=O)(=O)c1cc(C(=O)Nc2ccc3c(c2)OCCCO3)ccc1Cl | inactive
Cc1ccc(/C=N/NC(=O)c2cc(-c3ccccc3)nc3ccccc23)o1 | inactive
O=C1NC2(CCCCC2)C(=O)N1/N=C/c1ccccc1Br | active: 3.29 µM
OC(COC(c1ccc(F)cc1)c1ccc(F)cc1)CN1CCCC(C(F)(F)F)C1 (stereo unspecified) | inactive
CCN1CCc2nc(NC(=O)CC(c3ccccc3)c3ccccc3)sc2C1 | active: 5.86 µM
O=C1C=C(N2CCOCC2)c2ccccc2C1=O | inconclusive [inhibitor, full curve, poor fit]
CC(C)CNS(=O)(=O)c1ccc(S(=O)(=O)N2CCN(C3CCCC3)CC2)cc1 | inconclusive [inhibitor, single point]
O=C(NC1CCCCC1)C1CCCN(S(=O)(=O)c2cccc3cccnc23)C1 (stereo unspecified) | inconclusive [inhibitor, single point]
CCN(CC(=O)Nc1c(F)cccc1F)C(=O)c1ccc2ncsc2c1 | inactive

SMILES | Potency
COc1ccc(Cn2cc(C(=O)c3ccccc3)c(=O)c3cc(OC)ccc32)cc1 | inconclusive [inhibitor, single point]
O=C(CSc1nc2ccccc2s1)Nc1ccc(Cl)c(S(=O)(=O)N2CCOCC2)c1 | inconclusive [inhibitor, partial curve]
CCn1c(C)c(C2=CCN(S(=O)(=O)c3ccccc3)CC2)c2ccccc21 | inconclusive [inhibitor, single point]
CCC(/C=C1\Sc2ccc(OC)cc2N1CC)=C\c1sc2ccc(OC)cc2[n+]1CCCS(=O)(=O)[O-] | inconclusive [inhibitor, partial curve, poor fit]
CCN(CC(=O)Nc1ccccc1OC)C(=O)CCOc1ccc(C(C)(C)C)cc1 | inconclusive [inhibitor, single point]
Cc1cccc(-n2ncc3c2CCCC3NC(=O)C2CCOCC2)c1C (stereo unspecified) | inactive
O=C(OCC(=O)N(c1ccccc1)C1CCCCC1)c1ccc(CO)cc1 | inconclusive [inhibitor, partial curve, poor fit]
CN(c1ccccc1)S(=O)(=O)c1ccc(C(=O)Nc2nnc(C3CC3)s2)cc1 | inconclusive [inhibitor, partial curve, poor fit]
CSc1nc(-c2ccccc2)nc(N2CCN(C)CC2)c1C(C)=O | inconclusive [inhibitor, single point]
CCOC(=O)C1=C(C)NC2=C(C(=O)C(C(=O)OCC)C(c3ccc(OC)cc3)C2)C1c1ccccn1 (stereo unspecified) | inconclusive [inhibitor, partial curve, poor fit]
CN1CCN(S(=O)(=O)c2ccc(C(F)(F)F)cc2)C(c2ccccc2)C1 (stereo unspecified) | inconclusive [inhibitor, single point]
CCn1c(=O)n(CC)c2cc(S(=O)(=O)Nc3cc(C)cc(C)c3C#N)ccc21 | inconclusive [inhibitor, single point]
Cc1cc(C(=O)N2CCCC(C(=O)c3ccc(Oc4ccccc4)cc3)C2)n[nH]1 (stereo unspecified) | active: 10.4 µM
O=C1[C@@H]2Cc3c([nH]c4ccccc34)C(c3cccc(Br)c3)N2C(=O)CN1C1CCN(Cc2ccccc2)CC1 (stereo partly specified) | active: 1.47 µM
Cc1ccc2nc(-c3cccc(Br)c3)cc(C(=O)NCC3CCCO3)c2c1 (stereo unspecified) | inconclusive [inhibitor, single point]
CCOc1ccc(S(=O)(=O)Nc2ccccc2C(=O)N2CCOCC2)cc1 | inactive
CC(C)Oc1ccc(S(=O)(=O)N2CCCCC2)cc1NC(=O)CC1OC(=O)c2ccccc21 (stereo unspecified) | inconclusive [inhibitor, partial curve]
COc1cc([N+](=O)[O-])cc([N+](=O)[O-])c1NC(=O)N1CCOCC1 | inactive
CC(=O)c1ccc(OCC(O)CN2CCN(S(=O)(=O)c3cccc(Br)c3)CC2)cc1 (stereo unspecified) | inconclusive [inhibitor, partial curve]
CC1CC(C)CN(C(=O)C2CCN(S(=O)(=O)c3ccc4c(c3)CC(C)N4C(=O)C3CC3)CC2)C1 (stereo unspecified) | inconclusive [inhibitor, single point]
CCN(CC)C(=O)N1CCc2ccccc21 | inactive
CCOc1ccccc1-n1c(SC(C)C(=O)NCC2CCCO2)nc2ccccc2c1=O (stereo unspecified) | inconclusive [inhibitor, partial curve]

SMILES | Potency
CC(=O)c1ccc(NC(=O)c2ccc(S(=O)(=O)c3ccccc3)cc2)cc1 | inconclusive [inhibitor, partial curve]
Cn1cccc/c1=N\c1cccc[n+]1C | inconclusive [inhibitor, full curve]
Cc1ccc(S(=O)(=O)CCC(=O)OCC(=O)NCC(=O)Nc2c(C)cc(C)cc2C)cc1 | inactive
CN1CCN(C(=O)CCCN2C(=O)/C(=C/c3ccc(Cl)cc3)SC2=S)CC1 | inconclusive [inhibitor, partial curve]
O=C(Cn1cc([N+](=O)[O-])cn1)NCCc1c[nH]c2ccccc12 | inactive
Cn1c(=O)c2c(ncn2CCOc2ccc(Br)cc2)n(C)c1=O | inactive
CC(NC(=O)OCc1ccccc1)C(=O)NCC(=O)NC(Cc1ccc(OC(C)(C)C)cc1)C(=O)OC(C)(C)C (stereo not drawn) (Cbz-Ala-Gly-Tyr(tBu)-OtBu; configuration not given here) | inconclusive [inhibitor, partial curve]
COc1ccccc1N(CC(=O)NC1CC2CCC1C2)S(=O)(=O)c1ccc(C)cc1 (stereo unspecified) | inconclusive [inhibitor, single point]
NNC(=O)c1cccc(O)c1 | inactive
CC1(C)Cc2ccccc2C(CSc2ccccc2C(=O)O)=N1 | inconclusive [inhibitor, single point]
COc1ccc(-n2c(SCC(=O)Nc3nccs3)nc3sc4c(c3c2=O)CCN(C)C4)cc1 | inconclusive [inhibitor, full curve, poor fit]
COc1ccc(NCc2nn(CC(=O)c3ccc(Br)cc3)c3[n+]2CCCCC3)cc1 | active: 1.85 µM
CC(C)(C)OC(=O)N1CCC[C@H]1c1nnc(SCc2ccccc2)o1 | inconclusive [inhibitor, partial curve]
CC(C)(C)NC(=O)C(c1ccc(F)cc1)N(Cc1ccccc1Cl)C(=O)c1ccn[nH]1 (stereo unspecified) | inconclusive [inhibitor, single point]
CC(=O)c1cccc(NC(=O)C(C)OC(=O)CCN=C2NS(=O)(=O)c3ccccc32)c1 (stereo unspecified) | inactive
Clc1ccc(C2[C@H]3CN(CC4CCCCC4)[C@H](c4ccccc4)C34CC2(c2ccccc2)C4)cn1 (stereo partly specified) | inconclusive [inhibitor, partial curve, poor fit]
Cc1csc(NC(=O)c2c(-c3ccccc3)noc2C)n1 | inactive
COc1ccc(/C=C/C(=O)Nc2ccc3nc4n(c(=O)c3c2)CCCC4)cc1OC | inconclusive [inhibitor, full curve, poor fit]
CCN(CC)S(=O)(=O)c1ccc(C(=O)NCC2(N3CCOCC3)CCCCC2)cc1 | inconclusive [inhibitor, single point]
COc1ccc(/C=C/C(=O)Nc2ccc(C(N)=O)cc2)cc1OC | inactive
CCOC(=O)C1(CCCc2ccccc2)CCN(C(=O)c2cnc(C)cn2)CC1 | inconclusive [inhibitor, partial curve]
C#CCOCCOCCOCCNc1nc(N2CCN(C(=O)CCCCCCCCCCNC(=O)[C@H]([C@@H](C)CC)n3cc(CCCCCN)nn3)CC2)nc(N2CCN(C(=O)CCCCCCCCCCNC(=O)[C@H]([C@@H](C)CC)n3cc(CCCCN=C(N)N)nn3)CC2)n1 | inconclusive [inhibitor, single point]
